Experimental data reported in the RNAGym collection of RNA variant scans (doi:10.7554/elife.90254).
Read counts are not given, so values of variants with three or more changes are uncertain.

B1: LINE1-mini (parent)
chain: GGCAGAGCUCAACACAGCGUGGCAAAGUGGCUGUGGCUAGACUGCC

Variants of: B1
Experiment: self-cleavage, relative activity (ratio to wild type); higher = more cleavage; in vitro, sequencing; the parent is a self-cleaving ribozyme

| Variant | self-cleavage |
| --- | --- |
| U43A C45A C46U | 0.36 |
| U38G C45A C46A | 0.02 |
| U43C C45G C46A | 0.03 |
| G35U U43G C45A | 0.07 |
| G36A C37A U43C | 0.12 |
| C37A C42U C45G | 0.03 |
| G35U G40C C42A | 0.03 |
| C37G A41C U43A | 0.32 |
| G36A G40C A41G | 0.04 |
| G36C C37A U43C | 0.02 |
| C37U G40U A41C | 0.18 |
| C37A C42A C45A | 0.04 |
| G36U U38G C45G | 0.04 |
| U38C C42A C46A | 0.37 |
| C37U A39U G44U | 0.04 |
| U38C G40U G44U C46G | 0.01 |
| G35U G36A U43G | 0.2 |
| A41G U43G G44C | 0.04 |
| G35U C42A C46U | 0.11 |
| G36C C42G U43G | 0.06 |
| A39C G40U C46G | 0.11 |
| G36A A41G G44U | 0.1 |
| G36U C37G C45A | 0.03 |
| C37G A39G C46G | 0.03 |

| Variant | self-cleavage |
| --- | --- |
| U38A C42G C45G | 0.04 |
| G36A C42U G44U | 0.04 |
| C37A C42G C46A | 0.03 |
| C42G U43C G44U | 0.07 |
| G36C A39U C42U | 0.12 |
| C37U A39G G44A | 0.08 |
| G36U G40U C42G C46G | 0.29 |
| G36A A41C G44A | 0.18 |
| A39U U43A C45U | 0.1 |
| G40C G44C C45G C46A | 0 |
| A39U G40C G44U | 0.04 |
| G40U C42A C45A | 0.11 |
| C37U U38G C46G | 0.61 |
| A39U C42U C45A | 0.06 |
| A41C G44U C45A | 0.1 |
| G36U C42A U43G C45A | 0.02 |
| U38A G40U G44A | 0.01 |
| C37G A41G C45U | 0.04 |
| G36C A39G A41G | 0.01 |
| G35U G36U C46A | 0.08 |
| C42A G44C C46U | 0.23 |
| C37A U38A C42U | 0.05 |
| G40U U43G G44C | 0.05 |
| C37U A41C C42U | 0.01 |

| Variant | self-cleavage |
| --- | --- |
| C37A G40A A41C | 0.11 |
| G40U U43C C46U | 0.1 |
| A39U C42U G44U | 0.02 |
| G36U A41G C46U | 0.03 |
| C37G A41U C46G | 0 |
| G36U C37A A41G | 0.01 |
| G35U G36U U38C | 0.03 |
| A39C G40C C45G | 0.2 |
| G36A C37U G44C | 0.05 |
| U38G A39C C45G | 0.06 |
| G36A C45U C46G | 0.05 |
| G35U A41C C45G | 0.06 |
| A41U C42G C46U | 0.14 |
| G36U A39G G40C | 0.05 |
| U38A A41U C42U | 0.07 |
| U38C G40A C45A C46G | 0.01 |
| A39U U43C C46A | 0.07 |
| G35U G40U A41U | 0.53 |
| A41C C42U U43G G44C C46A | 0.3 |
| A39C G40U C45G | 0.05 |
| G40A A41G C42A C46A | 0.03 |
| A41U G44C C46G | 0.1 |
| G36A A39C G40U C46A | 0.1 |
| G40U G44U C46G | 0.01 |

| Variant | self-cleavage |
| --- | --- |
| G36U C42G C46A | 0.17 |
| G36U C37G A41C | 0.01 |
| G36A U38C C42U | 0.06 |
| U38A G40U C45G | 0.08 |
| C37U C42U U43A C45A | 0 |
| G36C U38G U43G G44C | 0.03 |
| U38A C42U U43G | 0 |
| A39C C42A C45G | 0.04 |
| U38A C42A C46G | 0.06 |
| C37A C42A G44A | 0.08 |
| G36A A39G A41U | 0.1 |
| G36C G40U C42A | 0 |
| U38G C42A C45A | 0.02 |
| C42A G44A C46U | 0.01 |
| A39U A41U C46U | 0.33 |
| U38A G40C U43A G44U | 0.02 |
| G35U G40U C42U | 0.59 |
| G36C U38G C45U C46U | 0.03 |
| C37A A39U C42U | 0.03 |
| U38C C42G U43G | 0.07 |
| C37G G40U C42U | 0.04 |
| C37A G40U C46G | 0.07 |
| G36A U38G C42G C45A | 0 |
| G40C C42U C45U | 0.08 |

| Variant | self-cleavage |
| --- | --- |
| C37A A39G C45G | 0.05 |
| C37A A39G C45A | 0.02 |
| A39U U43G G44C | 0.15 |
| A39U A41C G44A | 0.04 |
| U38C C42G G44A | 0.05 |
| G44U C45A C46U | 0 |
| G35U G40C A41C | 0.04 |
| A39C C42U U43G G44U C46U | 0.13 |
| G36U A39U C45G | 0 |
| G36U A39U C45U | 0.03 |
| G35U G36A U38C | 0.03 |
| C37A G40A C42U | 0.09 |
| G36U A41G C45U | 0.03 |
| G36U G40U U43G | 0.08 |
| G40C C42A U43A | 0 |
| A39C C42U C46U | 0.07 |
| G40U C45A C46U | 0.08 |
| G40U A41G C45G | 0.05 |
| G40U C42G G44U C45A C46G | 0.21 |
| C42G C45G C46G | 0.08 |
| G36U C42U U43A | 0.08 |
| C37U C45G C46A | 0.08 |
